Patent EP0992240A1, “THERAPEUTIC AGENT FOR ERECTION FAILURE” (MOCHIDA PHARMACEUTICAL CO., LTD., priority 1997, dated 1998)

Columns and labels:
[1] = target: T1, PDE type V (Canis lupus familiaris, UniProt O77746); assay: PDE inhibiting activity, type V; format: biochemical, dog; conditions: PDE purified from canine aorta; 1 µM substrate cGMP or cAMP; read-out: Inhibition Activity IC50 (µM) Type V
T1 construct: By elution with a sodium chloride gradient (0 - 0.4 M), PDE types V and III were separated from the other isozymes; from tissue; host or cells: canine aorta

[2] = test system: PDE type I; assay: PDE inhibiting activity, type I; format: biochemical, dog; conditions: PDE purified from canine aorta; 1 µM substrate cGMP or cAMP; read-out: Inhibition Activity IC50 (µM) Type I
Procedure: On the basis of the method of Lugnier et al. (Biochem. Pharmacol., 35, 1743-1751, 1986), PDE was purified from the aorta in a dog. The canine aorta was minced and homogenized with a Waring Blender and a glass homogenizer in six volumes of a Tris-HCl buffer solution (pH 7.5, 20 mM) containing 2 mM magnesium acetate, 5 mM ethylenediaminetetraacetic acid (EDTA), 100 µg/mL of phenylmethylsulforyl fluoride and 15 mM 2-mercaptoethanol (2-ME), and centrifuged at 1200 x g for 30 min. The supernatant was separated and salted out with ammonium sulfate which was added to 45% saturation. The resulting precipitated fraction was resuspended in a Tris-HCl buffer solution (pH 7.5, 20 mM) containing 2 mM magnesium acetate and 1 mM 2-ME, dialyzed overnight and applied to a DEAE-trisacryl column (DEAE […] M:IBF). By elution with a sodium chloride gradient (0 - 0.4 M), PDE types V and III were separated from the other isozymes. […]
The thus obtained PDE types V, III and I were measured for their activity in accordance with the method of Thompson et al. (Adv. Cyclic Nucleotide Res., 10, 69-72, 1979) and the method of Wells et al. (Biochim. Biophys. Acta, 384, 430-443, 1975). […] The activity of each test compound was determined as a percentage of the PDE activity measured when it was added as a dimethyl sulfoxide solution (DMSO) and its IC50 (50% inhibition concentration) was calculated by the probit method. […]

[3] = test system: male wistar rats; assay: Toxicity test, oral administration for four days; conditions: 100 mg/kg/day orally for four days

| SMILES | IC50 [1] [µM] | IC50 [2] [µM] | abnormal change in body weight and general symptoms [3] | dead case ([3]; until the next morning of the completion of the administration) |
| --- | --- | --- | --- | --- |
| CC(C)(C)OC(=O)COc1cc2c(=O)c(Cc3cccnc3)cn3c4ccc(Br)cc4c(c1)c23 [Example 3, 10-bromo-2-t-butoxycarbonylmethyloxy-5-(3-pyridylmethyl)-4H-pyrido[3,2,1-jk]carbazol-4-one] | 0.0075 | > 30 |  |  |
| Cc1cn2c3ccc(Br)cc3c3cc(OCC(=O)OC(C)(C)C)cc(c1=O)c32 [Example 15, 10-bromo-2-t-butoxycarbonylmethyloxy-5-methyl-4H-pyrido[3,2,1-jk]carbazol-4-one] | 0.0015 | > 30 |  |  |
| O=c1c(Cc2cccnc2)cn2c3cc(Br)ccc3c3cc(OCc4cccnc4)cc1c32 [Example 34, 9-bromo-5-(3-pyridylmethyl)-2-(3-pyridylmethyloxy)-4H-pyrido[3,2,1-jk]carbazol-4-one] | 0.018 |  |  |  |
| O=c1c(Cc2cccnc2)cn2c3cc(Br)ccc3c3cc(OCCCO)cc1c32 [Example 38, 9-bromo-2-(3-hydroxypropyloxy)-5-(3-pyridylmethyl)-4H-pyrido[3,2,1-jk]carbazol-4-one] |  |  | no abnormal change |  |
| O=c1ccn2c3ccc(Cl)cc3c3cccc1c32 [Example 44, 10-chloro-4H-pyrido[3,2,1-jk]carbazol-4-one] |  |  | no abnormal change | no dead case |
